The whole screen tested about 400,000 compounds, of which about 2,200 (0.55%) were called active. Inconclusive means that the source gave no clear call. Such entries were picked first, then a sample of the others. The call rests on the fitted dose curve; in most records, active means well fitted inhibition curve with a large enough effect; inconclusive means small, poorly fitted or top-dose-only effect, or another doubt; inactive means no such curve, though single readings can be large or run the other way. Potencies of inconclusive entries are doubtful fits and often do not repeat.
molecular target: DNA polymerase kappa (Homo sapiens) (UniProt Q9UBT6); test: qHTS for Inhibitors of Polymerase Kappa; settings: purified Pol kappa, fluorescent DNA synthesis assay, 10 min; series mostly up to 107 µM; activity, negative = inhibition: at the top concentration
Outline: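 10 nM Pol kappa preincubated 15 min at room temperature with compounds, then reaction started with substrate at 50 nM final. Fluorescence read kinetically at 0 and 10 min; buffer-only wells served as negative control.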
On the % scale 0 is the no-effect control and ±100 the full control effect; potency means the concentration at half of the fitted maximal effect; tags describe the fitted curve by direction and shape.

Chain of UniProt Q9UBT6 (Q9UBT6 whole entry, looked up): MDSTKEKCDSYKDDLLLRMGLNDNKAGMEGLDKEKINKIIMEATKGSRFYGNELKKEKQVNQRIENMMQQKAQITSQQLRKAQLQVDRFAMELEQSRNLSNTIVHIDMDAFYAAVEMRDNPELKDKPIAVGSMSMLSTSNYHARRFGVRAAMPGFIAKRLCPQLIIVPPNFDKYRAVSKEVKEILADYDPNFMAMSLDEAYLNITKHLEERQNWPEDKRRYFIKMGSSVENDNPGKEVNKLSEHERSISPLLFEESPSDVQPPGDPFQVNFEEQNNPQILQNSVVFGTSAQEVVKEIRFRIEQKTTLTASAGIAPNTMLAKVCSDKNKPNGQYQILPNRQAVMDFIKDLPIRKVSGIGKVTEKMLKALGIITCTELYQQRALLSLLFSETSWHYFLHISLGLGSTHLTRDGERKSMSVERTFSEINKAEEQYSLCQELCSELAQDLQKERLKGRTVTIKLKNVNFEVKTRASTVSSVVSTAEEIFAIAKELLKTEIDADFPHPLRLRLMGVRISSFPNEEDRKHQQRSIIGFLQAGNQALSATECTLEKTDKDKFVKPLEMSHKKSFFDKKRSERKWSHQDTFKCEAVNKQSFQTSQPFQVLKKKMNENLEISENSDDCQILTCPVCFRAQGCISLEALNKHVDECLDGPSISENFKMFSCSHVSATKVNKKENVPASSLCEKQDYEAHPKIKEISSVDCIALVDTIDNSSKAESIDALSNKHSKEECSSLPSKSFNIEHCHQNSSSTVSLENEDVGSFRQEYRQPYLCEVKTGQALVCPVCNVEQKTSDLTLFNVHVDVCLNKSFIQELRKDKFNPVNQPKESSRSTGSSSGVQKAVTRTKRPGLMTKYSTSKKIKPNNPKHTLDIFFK

Row | Structure (SMILES) | Potency | activity, negative = inhibition
1 | CCOc1ccccc1C(=O)OC(C)C(=O)Nc1ccc(S(=O)(=O)N2CCCC2)cc1 (stereo unspecified) | inconclusive: 89.1 µM [inhibitor, single point] | –
2 | COc1ccccc1OCCCSc1nc(-c2ccc(C(C)(C)C)cc2)nc2cc(=O)[nH]n12 | inconclusive: 89.1 µM [inhibitor, single point] | –
3 | COc1ccc(OC)c(NCc2cccn2-c2nnc(N3CCCCC3)s2)c1 | – | inactive: -6.53%
4 | CN(/C=C/C(=C\C=[N+](C)c1ccccc1)OCCCS(=O)(=O)[O-])c1ccccc1 | inconclusive: 100 µM [inhibitor, single point] | –
5 | CC1=Nc2ccccc2/C1=C/c1c(N)n2c(S(=O)(=O)C(C)C)nsc2nc1=O | – | inactive: -20.7%
6 | Cc1ccc(NC(=S)/N=C(\N)Nc2nc(C)c3cc(C)ccc3n2)c(C)c1 | – | inactive: -7.86%
7 | O=C(NCc1ccco1)[C@@H]1CSC2c3ccccc3C(=O)N21 (stereo partly specified) | inconclusive: 79.4 µM [inhibitor, partial curve, poor fit] | –
8 | COC(=O)c1c(NC(=O)CCCOc2ccc(C(C)(C)C)cc2)sc2c1C(C(=O)OC)CC2 (stereo unspecified) | inconclusive: 89.1 µM [inhibitor, single point] | –
9 | COc1ccc(S(=O)(=O)N2Cc3ccccc3CC2C(=O)Nc2ccc3c(c2)OCO3)cc1 (stereo unspecified) | – | inactive: -1.41%
10 | COc1ccc(NC(=O)Cn2c3ccccc3c3nc4n(c(=O)c32)CCS4)cc1 | – | inactive: -8.58%
11 | COc1ccc(-c2nc3ccccc3s2)cc1NC(=O)COc1cccc(C)c1 | inconclusive: 79.4 µM [inhibitor, partial curve, poor fit] | –
12 | CCCCCCCNC(=O)C1CC(=O)N(C)C(=Nc2ccc(OC)cc2)S1 (stereo unspecified) | – | inactive: -1.57%
13 | Cc1cccc(N=C2NC(=O)/C(=C/C=C/c3ccco3)S2)c1C | active: 14.1 µM | –
14 | CCCCN(CC)CCCNC(=O)C1CCCN(c2ncnc3c2nc2n3CCCCC2)C1 (stereo unspecified) | – | inactive: -15.9%
15 | Cc1ccc(OCCn2c(-c3ccc(Br)cc3)nc3ccccc3c2=O)cc1C | – | inactive: -21.1%
16 | C=C(C)C(=O)Nc1cccc(C2=NOC3(C2)C[C@@H](C(N)=O)N(C(=O)CC(c2ccccc2)c2ccccc2)C3)c1 (stereo partly specified) | active: 35.5 µM | –
17 | O=C(O)C(Cc1ccccc1)N1C(=O)/C(=C/C=C/c2ccco2)SC1=S (stereo unspecified) | active: 3.16 µM | –
18 | N#Cc1c(-c2ccccc2)nc(SCC(=O)N2c3ccccc3Sc3ccccc32)[nH]c1=O | – | inactive: -13.9%
19 | Cc1ccc2c(=O)cc(C(=O)Nc3c(C(=O)Nc4cccc(Cl)c4)oc4ccccc34)oc2c1 | – | inactive: -16.8%
20 | O=C(CSc1nc2ccccc2n1CCc1ccccc1)c1ccc(O)c(O)c1 | inconclusive: 11.2 µM [inhibitor, full curve, poor fit] | –
21 | O=C(N/N=C/c1ccncc1)c1ccc(NC(=O)c2cccc(Cl)c2)cc1 | inconclusive: 89.1 µM [inhibitor, partial curve, poor fit] | –
22 | CCc1nn2c(=O)cc(COc3cccc(NC(=O)c4ccco4)c3)nc2s1 | inconclusive: 89.1 µM [inhibitor, single point] | –
23 | COc1cc(C(=S)N2CCN(c3cccc(Cl)c3)CC2)ccc1O | – | inactive: 8.18%
24 | CCc1nn(CC(=O)NCc2ccc(OC)c(OC)c2)c(=O)c2cc3sc(C)cc3n12 | inconclusive: 100 µM [inhibitor, single point] | –

Row | Structure (SMILES) | Potency | activity, negative = inhibition
25 | COc1cc(O)c2c(=O)cc(-c3ccc(OC)c(-c4c(O)cc(O)c5c(=O)cc(-c6ccc(O)cc6)oc45)c3)oc2c1 | inconclusive: 35.5 µM [inhibitor, partial curve, poor fit] | –
26 | O=c1c(-c2ccc3c(c2)OCCO3)c(C(F)(F)F)oc2cc(O)cc(O)c12 | – | inactive: -13.6%
27 | Cc1ccc(OCC(=O)N/N=C\c2ccc(-c3cccc(C(=O)O)c3)o2)c(C)c1 | active: 50.1 µM | –
28 | C(=Nc1ccc(/C=C/c2ccnc3ccccc23)cc1)c1cc2c3c(c1)CCCN3CCC2 | inconclusive: 70.8 µM [inhibitor, partial curve, poor fit] | –
29 | N[C@H](CC(=O)O)C(=O)O | inactive | –
30 | Cc1ccc(N/C(N)=N/c2nc(C)cc(N3CCCCC3)n2)c(C)c1 | inconclusive: 89.1 µM [inhibitor, partial curve, poor fit] | –
31 | C=CCN1C(=O)/C(=C/c2ccc(OC(C)=O)c(OCC)c2[N+](=O)[O-])SC1=S | inconclusive: 89.1 µM [inhibitor, partial curve, poor fit] | –
32 | CCOC(=O)c1ccc(N=C2SC(C(=O)NC)CC(=O)N2Cc2ccc(F)cc2)cc1 (stereo unspecified) | – | inactive: 2.03%
33 | CCc1c(C)sc2c1CCN(C(=O)Nc1cc(Cl)c(OC)cc1OC)C2c1ccccc1 (stereo unspecified) | – | inactive: -11% [at 60.1 µM]
34 | COc1ccc(CNC(=O)CCc2c(C)nc3nc(CNC(=O)OC(C)(C)C)nn3c2C)cc1 | – | inactive: -5.54%
35 | O=C(CN1C(=O)CC(c2ccco2)Sc2ccccc21)Nc1ccc(Br)cc1 (stereo unspecified) | inconclusive: 89.1 µM [inhibitor, single point] | –
36 | COc1ccc(C2/C(=C(\O)c3cccc(OC)c3)C(=O)C(=O)N2c2ccccn2)cc1 (stereo unspecified) | – | inactive: -12.6%
37 | C#Cc1ccc([C@@H]2C=C(C(=O)OCC=C)O[C@H](OCCCCO)C2)cc1 | inconclusive: 79.4 µM [inhibitor, partial curve, poor fit] | –
38 | CC1(C)CCC(c2ccc(Cl)cc2)=C(CN2CCN(c3ccc(C(=O)NS(=O)(=O)c4ccc(N[C@H](CCN5CCOCC5)CSc5ccccc5)c(S(=O)(=O)C(F)(F)F)c4)cc3)CC2)C1 | active: 44.7 µM | –
39 | CCCc1ccc(S(=O)(=O)N2CCN(C(C)C(=O)NCc3ccccc3)CC2)cc1 (stereo unspecified) | – | inactive: -4.83%
40 | COc1ccc(N2CCN(C(=O)c3cc4c(s3)CCCCC4)CC2)cc1 | – | inactive: 11.2%
41 | COc1cc2c(NC3CCN(C)CC3)nc(N3CCCN(C)CC3)nc2cc1OCc1ccccc1 | – | inactive: -7.17%
42 | NC(=O)c1c(NC(=O)c2cccs2)sc2c1CCCCCC2 | inconclusive: 39.8 µM [inhibitor, single point] | –
43 | Cc1nc(N=Nc2cc(S(=O)(=O)O)ccc2S(=O)(=O)O)c(COP(=O)(O)O)c(C=O)c1O | active: 2 µM | –
44 | COc1ccc(CCNC(=O)c2cc(-c3ccco3)nc3ccccc23)cc1 | active: 79.4 µM | –
45 | COc1cccc(/C=C2\SC(=S)N(N3C(=O)CCCC3=O)C2=O)c1 | – | inactive: -4.94%
46 | O=C(N/N=C/C=C\c1ccco1)c1ccccn1 | active: 50.1 µM | –
47 | Cn1cc(CNC(=O)C2CCC(=O)N(Cc3ccc(Cl)cc3)C2)cn1 (stereo unspecified) | inconclusive: 79.4 µM [inhibitor, partial curve, poor fit] | –
48 | CC1CC(C)C(=O)C(C(CC2CC(=O)NC(=O)C2)OC(=O)CC(=O)c2ccccc2)C1 (stereo unspecified) | – | inactive: -0.396%

Row | Structure (SMILES) | Potency | activity, negative = inhibition
49 | CNS(=O)(=O)c1cccc(C(=O)OCC(=O)N2c3ccccc3NC(=O)C2(C)C)c1 | inconclusive: 79.4 µM [inhibitor, partial curve] | –
50 | CC/C=C\C/C=C\C/C=C\C/C=C\C/C=C\CCCC(=O)O | inconclusive: 11.2 µM [inhibitor, partial curve, poor fit] | –
51 | Cc1ccccc1NC(=O)CSc1nc2ccccc2c(=O)n1C | inconclusive: 100 µM [inhibitor, single point] | –
52 | Cc1cc(C)c([N+](=O)[O-])cc1-c1ccc(/C=N/c2c(-c3ccco3)nc3ccccn23)o1 | inconclusive: 89.1 µM [inhibitor, single point] | –
53 | CC(=O)[C@]1(O)Cc2c(O)c3c(c(O)c2[C@@H](O[C@H]2C[C@H](N)[C@H](O)[C@H](C)O2)C1)C(=O)c1c(O)cccc1C3=O | active: 10 µM | –
54 | CC1(C)C(OC(=O)CCC(=O)O)CC[C@]2(C)C1CC[C@@]1(C)C2C(=O)C=C2[C@@H]3C[C@@](C)(C(=O)O)CC[C@]3(C)CCC21C (stereo partly specified) | – | inactive: -6.86% [at 60.1 µM]
55 | CN(C)C(CNC(=O)CCOc1ccccc1)c1ccco1 (stereo unspecified) | active: 79.4 µM | –
56 | COc1ccc(-c2nc3cc(C(C)C)ccc3o2)cc1NC(=O)c1ccc(C)c(Cl)c1 | – | inactive: 6.5%
57 | CN(C)CCCN1C(=O)c2cc3ccccc3cc2C1=O | – | inactive: -12.5%
58 | O=C1c2cccc3cccc(c23)C(=O)N1c1ccc2ncccc2c1 | inconclusive: 89.1 µM [inhibitor, single point] | –
59 | CC(=O)OCCNc1cc(SCc2ccco2)c2nonc2c1[N+](=O)[O-] | active: 79.4 µM | –
60 | Cc1cc(C)cc(C(=O)OCC(=O)NCc2ccco2)c1 | inconclusive: 70.8 µM [inhibitor, partial curve, poor fit] | –
61 | O=c1c(-c2cccs2)nc2cnc(Oc3cccc(Cl)c3)nc2n1C1CC1 | inconclusive: 0.447 µM [inhibitor, partial curve, poor fit] | –
62 | CCOC(=O)C1CCCN(C(=O)CCS(=O)(=O)c2cc3c(cc2Cl)NC(=O)CO3)C1 (stereo unspecified) | – | inactive: -8.08%
63 | CC(=O)NC(Cc1ccc(Cl)cc1)C(=O)NCC(N)C(=O)c1ccccc1 (stereo unspecified) | – | inactive: -4.79%
64 | O=C(CSc1nc(-c2ccccc2)nc2c1Cc1ccccc1O2)Nc1ccc(C(=O)O)cc1 | active: 10 µM | –
65 | O=c1cc(CSc2nc3ccccc3c(=O)[nH]2)c2ccc(O)cc2o1 | inconclusive: 100 µM [inhibitor, single point] | –
66 | CCOC(=O)C1CCCN(S(=O)(=O)c2cc3c(cc2C)NC(=O)CO3)C1 (stereo unspecified) | – | inactive: -3.45%
67 | Cc1c(O)ccc(/C=N/Nc2nc(-c3cccnc3)nc3ccccc23)c1O | inconclusive: 50.1 µM [inhibitor, partial curve, poor fit] | –
68 | COc1cccc(CNC(=O)CSC2=Nc3ccccc3C3=NC(C)C(=O)N23)c1OC (stereo unspecified) | – | inactive: -4.75% [at 60.1 µM]
69 | Cn1c(SCC(=O)Nc2ccccc2)nc(O)cc1=O | inconclusive: 89.1 µM [inhibitor, single point] | –
70 | COc1ccc(OC)c(/C=C(\C#N)c2nc3ccccc3c(=O)[nH]2)c1 | – | inactive: -30%
71 | CCCCCC(=O)Cc1cc(O)cc2c1C(=O)Oc1cc(O)c(C(=O)O)c(CCCCC)c1O2 | active: 79.4 µM | –

From PubChem BioAssay AID588579 (National Center for Advancing Translational Sciences (NCATS), 2011)
